From PubChem BioAssay AID504832 (National Center for Advancing Translational Sciences (NCATS), 2011)
Among all 310,000 compounds or so, about 18,000 (5.8%) were called active. The shares of active, inactive and inconclusive entries below differ from those in the screen. The call rests on the fitted dose curve; in most records, active means well fitted inhibition curve with a large enough effect; inconclusive means small, poorly fitted or top-dose-only effect, or another doubt; inactive means no such curve, though single readings can be large or run the other way. Potencies of inconclusive entries are left out as doubtful fits.

Experiment: Primary qHTS for delayed death inhibitors of the malarial parasite plastid, 48 hour incubation
Conditions: P. falciparum luciferase growth in erythrocytes; series mostly up to 28.7 µM; activity change, negative = inhibition: at the top concentration
In short: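 First compound was added to culture medium, then infected red cells at 0.1% parasitemia and 2% hematocrit (final). After incubation at 37 C under 5% CO2, luciferase detection reagent was dispensed and light output recorded.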
On the % scale 0 is the no-effect control and ±100 the full control effect; potency means the concentration at half of the fitted maximal effect; tags describe the fitted curve by direction and shape.

Compound	Potency	activity change, negative = inhibition
CCOc1ccccc1C(=O)N1CCN(C(c2ccccc2)c2ccccc2)CC1	inconclusive [inhibitor, partial curve, poor fit]	–
CCOC(=O)N1CCN(C(=O)C2c3cc(OC)c(OC)cc3C(=O)N3CCc4ccccc4C23)CC1 (centres undefined)	–	inactive: 3.63%
CCN(CC1CCCN(CCc2cccc(OC)c2)C1)C(=O)c1ccoc1C (centres undefined)	–	inactive: 0.287%
CCOC(=O)c1ccc2c(c1)NCc1cccc(OC)c1O2	–	inactive: 151%
CCCOc1ccc(/C=N/NC(=O)C2CCCN2S(=O)(=O)c2ccc(Cl)cc2)cc1 (centres undefined)	inconclusive [inhibitor, single point]	–
Cc1ccc(C)c(C(=O)COC(=O)C2CCN(c3ccc(C(F)(F)F)cn3)CC2)c1	inconclusive [inhibitor, partial curve]	–
COc1ccc(C2CC(c3ccc(Br)cc3)=NN2C(=O)CN2CCCC2)cc1 (centres undefined)	inconclusive [inhibitor, single point]	–
CCc1ccc(-c2cc(C(=O)N/N=C/c3ccco3)[nH]n2)cc1	–	inactive: 6.96%
CC(=O)NC(CC(=O)OCC(=O)c1c(N)n(C)c(=O)n(C)c1=O)c1ccccc1 (centres undefined)	inconclusive [inhibitor, single point]	–
COc1ccc(NC(=O)CSCC(=O)Nc2ccccc2N2CCCCC2)cc1	inconclusive [inhibitor, partial curve]	–
O=C(Nc1ccc(F)cc1)Nc1sccc1-c1nc2ccccc2s1	active: 8.28 µM	–
Cc1ccc(-c2nc3ncccc3o2)cc1NC(=O)c1cccs1	inconclusive [inhibitor, single point]	–
Cc1ccc(C(=O)NN2C(=O)C3C4C=CC(C4)[C@@H]3C2=O)cc1 (some centres undefined)	active: 1.85 µM	–
CCOc1ccc(NC(=O)CN(C)C(=O)c2ccc(N3CCCC3)c([N+](=O)[O-])c2)cc1OCC	inconclusive [inhibitor, single point]	–
CSc1ccc(C2Nc3cccc4cccc(c34)N2)cc1	inconclusive [inhibitor, partial curve, poor fit]	–
COc1ccccc1N1CCN(C(=O)c2ccc(S(=O)(=O)N3CCCCCC3)cc2)CC1	inconclusive [inhibitor, partial curve]	–
O=C(Nc1ccc([N+](=O)[O-])cc1)Nc1ccc(OC(F)F)c(Cl)c1	active: 1.85 µM	–
OCC1(Cc2ccc(Cl)cc2)CCN(Cc2ccccc2F)CC1	active: 13.1 µM	–
CCN(CC(=O)Nc1cc(Cl)ccc1C)C(=O)Cc1sc(C)nc1-c1ccc(F)cc1	inconclusive [inhibitor, partial curve]	–
Cc1oc2c(Cl)c(Cl)c(O)c(CN(C)C)c2c1C(=O)c1ccc(Cl)cc1	inconclusive [inhibitor, partial curve, poor fit]	–
Cc1sc(NC(=O)c2cc(-c3ccc(Cl)cc3)nc3ccccc23)c(C(N)=O)c1C	inconclusive [inhibitor, partial curve, poor fit]	–
Cc1cccc(NC(=O)COC(=O)c2ccc(S(=O)(=O)N3CCCCCC3)cc2)c1	inconclusive [inhibitor, partial curve, poor fit]	–
Cc1cccc(OP(=O)(Oc2cccc(C)c2)OC(c2ccccc2)C(F)(F)F)c1 (centres undefined)	active: 10.4 µM	–

Compound	Potency	activity change, negative = inhibition
COCC1CCCN(Cc2nc(C(c3ccccc3)c3ccccc3)no2)C1 (centres undefined)	inconclusive [inhibitor, partial curve]	–
Cc1ccccc1C(=O)Nc1cc(S(=O)(=O)N2CCOCC2)ccc1N1CCN(C)CC1	inconclusive [inhibitor, single point]	–
CCCN(C(=O)c1ccc(N2CCCC2=O)cc1)C1CCS(=O)(=O)C1 (centres undefined)	inconclusive [inhibitor, single point]	–
C/C(=C\c1ccc(N(C)C)cc1)[N+](=O)[O-]	inconclusive [inhibitor, partial curve, poor fit]	–
Oc1cc(Br)ccc1C=Nc1ccc(N2CCCCC2)cc1	active: 8.28 µM	–
Cc1cc(NC(=O)CSc2nnc(-c3ccc(O)cc3)o2)no1	active: 6.57 µM	–
O=C(CCCCCNc1nc(=S)[nH]c2ccccc12)NCCc1ccc(Cl)cc1	–	inactive: -24.2%
Cc1cc(Nc2ccc(F)c(Cl)c2)n2nc(C)nc2n1	active: 3.29 µM	–
Cc1ccc(S(=O)(=O)N2CCCC2CNC(=O)C(=O)NCc2cccs2)cc1 (centres undefined)	inconclusive [inhibitor, single point]	–
CC1CCC2(CC1)NC(=O)N(CC(=O)Nc1cccc(S(=O)(=O)N3CCOCC3)c1)C2=O (centres undefined)	–	inactive: -10.1%
Cc1ccc(NC(=O)CSc2ccc3c(c2)OCCO3)c(O)c1	–	inactive: 8.1%
COc1cccc(NC(=O)C2CCCN(S(=O)(=O)c3ccc(-n4cnnn4)cc3)C2)c1 (centres undefined)	inconclusive [inhibitor, partial curve, poor fit]	–
Cc1ccc(Cn2c(SCC(=O)N(C)C3CCS(=O)(=O)C3)nc3ccccc3c2=O)cc1 (centres undefined)	inconclusive [inhibitor, single point]	–
COc1ccc(-c2csc(NC(=O)c3ccc(OCC(=O)N4CCOCC4)c(OC)c3)n2)cc1OC	active: 9.28 µM	–
CN(C)c1ccc(C(=O)c2ccccc2C(=O)O)c(O)c1	inconclusive [inhibitor, partial curve]	–
CCN1C(=O)[C@@H]2[C@@H](c3ccc(-c4ccc5c(c4)OCO5)c(OC)c3)N3CCC[C@@]3(C(=O)OC)[C@@H]2C1=O	inconclusive [inhibitor, single point]	–
Cc1ccc(C)c(C2(O)CC(C)N(C)CC2C)c1 (centres undefined)	–	inactive: -1.64%
O=C(NNC(=O)c1ccccc1C(=O)O)c1cc2ccccc2o1	inconclusive [inhibitor, full curve, poor fit]	–
CCn1c(COc2ccccc2C)nnc1SCC(=O)CC(=O)Nc1ccccc1OC	inconclusive [inhibitor, partial curve, poor fit]	–
COc1ccc(OC)c(S(=O)(=O)N2CCC(C(=O)NCc3ccc4c(c3)OCO4)CC2)c1	–	inactive: -1.18%
CC1CCCCC12NC(=O)N(CC(=O)Nc1cccc(S(=O)(=O)N3CCCCC3)c1)C2=O (centres undefined)	inconclusive [inhibitor, single point]	–
O=C(NC(=S)Nc1ncc(Br)cc1Br)c1ccccc1	–	inactive: 129%
O=C(CC(C(=O)O)c1ccc(Cl)cc1)c1ccccc1 (centres undefined)	–	inactive: 42.3%

Compound	Potency	activity change, negative = inhibition
CCCC(c1nnnn1CCOC)N(Cc1cc2cc(C)c(C)cc2[nH]c1=O)CC1CCCO1 (centres undefined)	inconclusive [inhibitor, single point]	–
O=C(O)C(=O)/C(=C\c1cccc(Cl)c1)c1ccc2ccccc2n1	–	inactive: 275%
CCOC(=O)/C(C#N)=C/c1cc2ccccc2nc1N1CCCCC1	–	inactive: 6.17%
Cc1nc(N)c(Br)c(C)c1Br	inconclusive [inhibitor, single point]	–
C/C(N)=C(/C#N)C(=O)CSc1nnc(Nc2c(C)cccc2C)s1	inconclusive [inhibitor, partial curve, poor fit]	–
Cn1c(CC(=O)NNC(=O)c2ccccc2F)nc2ccccc21	inconclusive [inhibitor, single point]	–
CCOC(=O)N1CCN(C(=O)c2cc(S(=O)(=O)N3CCc4ccccc43)ccc2OC)CC1	inconclusive [inhibitor, single point]	–
CCN(CC(=O)Nc1ccc(OC)cc1)CC(=O)N1CC(=O)Nc2ccccc21	inconclusive [inhibitor, single point]	–
CCOC(=O)c1nn(-c2ccc(C)c(Cl)c2)c(=O)c(C#N)c1C	inconclusive [inhibitor, single point]	–
S=C(NCCCc1ccccc1)Nc1ccccc1	inconclusive [inhibitor, single point]	–
O=C(CSc1nnc(COc2ccc(Cl)cc2)o1)N1c2ccccc2CCc2ccccc21	inconclusive [inhibitor, single point]	–
O=C(/C=C/c1ccccc1)N(Cc1cccs1)C1CCS(=O)(=O)C1 (centres undefined)	inconclusive [inhibitor, single point]	–
CCCCCc1c(C)nc(N2CCOCC2)[nH]c1=O	–	inactive: -19.9%
CC(=O)c1sc2c(c1N)c(=O)[nH]c(=O)n2-c1ccccc1	inconclusive [inhibitor, partial curve, poor fit]	–
COc1cc(NC(=O)C2CCCCC2)c(OC)cc1NC(=O)c1ccco1	inconclusive [inhibitor, partial curve, poor fit]	–
COc1cc(CNC2CCCCCCC2)cc(Br)c1OCC#N	inconclusive [inhibitor, single point]	–
CCCC(=O)Nc1ccc(C(=O)N/N=C/c2ccc([N+](=O)[O-])o2)cc1	–	inactive: -91.6%
O=C(OCC#CCSc1nnc(-c2cccc3ccccc23)o1)c1ccco1	inactive	–
COc1ccccc1CN1CC(C(=O)NCCC2=CCCCC2)CCC1=O (centres undefined)	–	inactive: 5.22%
CC(C)N(Cc1ccccc1)C(=O)COC(=O)c1ccccc1SCC(=O)N1CCCC1	–	inactive: 1.56%
Cc1csc(SCC(=O)Nc2ccccc2)n1	–	inactive: 0%
NC(=O)C1(N2CCCCC2)CCN(CC(=O)Nc2ccc(Oc3ccccc3)cc2)CC1	inconclusive [inhibitor, single point]	–
CCC(=O)N1c2ccc(S(=O)(=O)N3CCN(CC)CC3)cc2CC1C (centres undefined)	inconclusive [inhibitor, partial curve, poor fit]	–
